Assay results as given in the RNAGym collection of RNA variant scans (doi:10.7554/elife.90254).
The source gives no read counts; variants with many changes may rest on few reads.

B1: LINE1-mini (parent)
chain: GGCAGAGCUCAACACAGCGUGGCAAAGUGGCUGUGGCUAGACUGCC

Variants of: B1
Test: self-cleavage, relative activity (ratio to wild type); higher = more cleavage; in vitro, sequencing; the parent is a self-cleaving ribozyme

| Variant | self-cleavage |
| --- | --- |
| C3U A6G G22U C31U | 0.03 |
| C3G U38C U43C | 0.11 |
| C3G G17C C18A G35A | 0.13 |
| C3U C8G A14C A25G A41U | 0.01 |
| C3U A25U A26U G30A | 0.74 |
| C3U A12G U20A | 0.01 |
| C3U A4U G5U A11G C18G C31U G44U | 0.01 |
| C3U A25C U38G | 0.02 |
| C3U A14U C15A C31U C45U | 0.06 |
| C3U A6C C8G A16G U32C | 0.05 |
| C3G G17U C31A C46A | 0.15 |
| C3G U9A A14U G29U U38G | 0.25 |
| C3G U9C C10G A16G C23A C31A A39U | 0.01 |
| C3U A16C G19U G22A U34C | 0.07 |
| C3U A12G U28G | 0.04 |
| C3G U20A C23U | 0.24 |
| C3U C8A G19C G21U C46G | 0.03 |
| C3U A12C U28A G35A | 0.03 |
| C3G G36C C37G | 0.08 |
| C3G U20C G27U C31G U38G | 0.21 |
| C3G U38A A41C | 0.11 |

| Variant | self-cleavage |
| --- | --- |
| C3G U20A C37U C46G | 0.06 |
| C3U A12C G36A C45G | 2.39 |
| C3U C8A U9C A12U | 0.07 |
| C3G G17C G19C G35U | 0.1 |
| C3G G27C G35U | 0 |
| C3G G21A G30U | 0.2 |
| C3G U20A U34G G40A C46A | 0.03 |
| C3G G35A C37U | 0.02 |
| C3G G19C A26U A39G A41C | 0 |
| C3G G21C U43A G44A | 0.09 |
| C3U A4C G19A C37U | 0.04 |
| C3G G35A G40C | 0.02 |
| C3G G17A C18U A41C | 0.04 |
| C3U A4G C46U | 0.12 |
| C3G G17U G19U G21C G29U | 0.08 |
| C3G G21A U34A | 0.03 |
| C3U A4C C8U | 0.83 |
| C3U A26C U34C A39U | 0.03 |
| C3U A14G C23A G36U | 0.16 |
| C3U A4U A16G U32A | 0.03 |
| C3U A4C G5A G29A A39C A41U | 0.25 |

| Variant | self-cleavage |
| --- | --- |
| C3U C8A C13U C18G G22C G33U | 0.14 |
| C3G U20G C23G | 0.01 |
| C3U A6C A25U C37U | 0.02 |
| C3G G19U C46U | 0.08 |
| C3G G29U U43A | 0.15 |
| C3U A4U G7U A16C G36C U38G C46A | 0.01 |
| C3U A11U C13U | 0.03 |
| C3G G27C C45A | 0.1 |
| C3U A12U G36C C46A | 0.05 |
| C3U A4G A16U A39U C42U | 0.1 |
| C3G G22C C46U | 0.2 |
| C3G U9C G30A | 0.09 |
| C3U A4U G5U | 0.22 |
| C3U A24U A39C | 0.11 |
| C3U A14C G19C G33C | 0.03 |
| C3G U9A G33U | 0.24 |
| C3G G29C U34G | 0.03 |
| C3G G35A G36A G40A | 0.48 |
| C3G U20G G30A C31U G33C | 0.09 |
| C3U A4U U28C G33C A41U | 0.12 |
| C3G U9A G33A U38C | 0.26 |

| Variant | self-cleavage |
| --- | --- |
| C3G G17C A26U G33U A39C | 0.05 |
| C3U A4G G17A | 0.1 |
| C3U A6G U32G | 0.1 |
| C3G G17C U32A G35C C42A | 0.12 |
| C3U A12G G17A G30C G36A C45A | 0.01 |
| C3U A4U U9A C10G | 0.07 |
| C3U A6U C10A A39U | 0.02 |
| C3U A12U A16G G29U C45U | 0.14 |
| C3U A4G A25U | 0.62 |
| C3G G17C G22A G35C G40U A41G | 0.06 |
| C3G G36U C37A | 0.1 |
| C3U A24U G35A G36U | 0.04 |
| C3G U34C G36C U38C A39C C42G G44U | 0 |
| C3U A25U G30U U34C G35C | 0.03 |
| C3U A24C C31G | 0.03 |
| C3U A4G C13A C23A | 0.2 |
| C3G G17A U43C | 0.01 |
| C3U A6U C10A | 0.25 |
| C3U A16U U20G G29U | 0.03 |
| C3U A6C C10A G30U A41C C42G | 0.01 |
| C3U A11G G30U C37A C42A | 0.02 |
